According to publication PMC4336329 (PLoS ONE, 2015):
Screen size: about 310,000 compounds; about 2,200 (0.71%) showed an effect of 50% or more. Effects have a minus sign here. This is one part of the list.

Biological target: human ether-à-go-go-related gene (hERG) potassium channel (human, UniProt Q12809)
Assay: primary screen, population patch clamp on CHO cells stably expressing hERG

Sequence of human ether-à-go-go-related gene (hERG) potassium channel (Q12809 whole entry, looked up): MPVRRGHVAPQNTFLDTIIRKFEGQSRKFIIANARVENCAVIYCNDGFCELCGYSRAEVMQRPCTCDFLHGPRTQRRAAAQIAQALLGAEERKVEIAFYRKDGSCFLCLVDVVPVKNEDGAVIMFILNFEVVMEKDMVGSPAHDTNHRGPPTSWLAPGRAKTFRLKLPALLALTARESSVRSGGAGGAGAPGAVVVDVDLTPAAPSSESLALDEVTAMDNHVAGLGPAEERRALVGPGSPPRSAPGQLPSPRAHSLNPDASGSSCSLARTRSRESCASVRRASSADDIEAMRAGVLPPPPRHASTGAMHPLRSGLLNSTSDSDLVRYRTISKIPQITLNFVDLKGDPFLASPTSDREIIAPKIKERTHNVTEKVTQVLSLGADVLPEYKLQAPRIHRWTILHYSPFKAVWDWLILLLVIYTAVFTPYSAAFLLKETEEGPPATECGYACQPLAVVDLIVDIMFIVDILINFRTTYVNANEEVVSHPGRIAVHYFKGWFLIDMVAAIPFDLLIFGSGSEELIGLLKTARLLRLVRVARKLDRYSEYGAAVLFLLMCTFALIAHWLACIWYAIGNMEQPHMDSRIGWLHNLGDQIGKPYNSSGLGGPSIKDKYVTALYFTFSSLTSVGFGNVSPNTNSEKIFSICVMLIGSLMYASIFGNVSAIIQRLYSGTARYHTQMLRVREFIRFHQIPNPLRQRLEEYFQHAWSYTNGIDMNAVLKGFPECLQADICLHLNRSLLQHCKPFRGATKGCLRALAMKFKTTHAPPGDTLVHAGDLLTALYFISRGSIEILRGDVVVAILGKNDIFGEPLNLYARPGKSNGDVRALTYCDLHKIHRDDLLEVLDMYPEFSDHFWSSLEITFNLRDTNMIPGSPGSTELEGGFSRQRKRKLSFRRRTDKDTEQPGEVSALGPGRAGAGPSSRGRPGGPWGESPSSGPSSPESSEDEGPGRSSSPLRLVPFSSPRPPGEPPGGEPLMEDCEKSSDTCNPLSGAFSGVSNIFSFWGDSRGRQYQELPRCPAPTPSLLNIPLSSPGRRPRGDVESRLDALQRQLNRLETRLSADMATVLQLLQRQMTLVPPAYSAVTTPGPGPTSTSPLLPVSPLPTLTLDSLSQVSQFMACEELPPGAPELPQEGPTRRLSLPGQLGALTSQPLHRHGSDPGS

Structure (SMILES)	hERG current change (%, negative = inhibition) at 1uM
CCCC(=O)OC1CCS(=O)(=O)c2sccc21 (centres unmarked)	8.12%
C/C(CC(=O)Nc1cc(C)ccn1)=N\NC(=O)c1ccc(C(C)(C)C)cc1	14.2%
CCOC(=O)c1[nH]c(C)c(C(=O)/C=C/c2ccc(C(=O)O)cc2)c1C	14.1%
O=C(CCC(=O)Nc1cccc([N+](=O)[O-])c1)N/N=C/c1cccs1	7.2%
COc1ccc(-c2[nH]ncc2CN2CCC(C(=O)c3ccc(F)cc3)CC2)cc1	-70.5%
O=C(COC(=O)c1cccs1)Nc1nc(-c2ccccc2)cs1	13.9%
COc1ccc(N(CC(=O)NCc2cccs2)S(=O)(=O)c2ccc(F)cc2)cc1	8.53%
Clc1ccc(COn2c(-c3ccccc3)nc3ccccc32)cc1	6.5%
O=C(NCCCCCCNC(=O)C1CCCC1)C1CCCC1	10.7%
CCOC(=O)N1CCN(c2cc(=O)n(-c3ccc(OCC)cc3)c(=O)[nH]2)CC1	12.2%
C=C1C(C(=O)Nc2cccc(OC)c2)C1C(=O)Nc1cccc(OC)c1 (centres unmarked)	14.9%
CC1CCN(S(=O)(=O)c2cc(Br)cc(C(=O)NC3=NCCS3)c2)CC1	-0.219%
Clc1ccc(CSCCc2ccncc2)cc1.O=P(O)(O)O	-4.31%
COc1ccc(Nc2nc(N)c([N+](=O)[O-])c(N3CCOCC3)n2)cc1	6.04%
NC(=O)N1CC(O)CC1C(=O)Nc1ccc(Cl)c(Cl)c1 (centres unmarked)	14.7%
CCN(CC)S(=O)(=O)c1cccc(-c2cn3cc(C)ccc3n2)c1	-6.37%
CCCC(=O)Oc1ccccc1C1SCc2cc(C)c(C)cc2CS1	4.15%
COc1ccc(C(=S)N2CCN(c3cccc(Cl)c3)CC2)cc1	11.1%
Cc1cc(C)c2[nH]c(=O)c(C(c3nnnn3Cc3ccc4c(c3)OCO4)N3CCC(C)CC3)cc2c1 (centres unmarked)	13.6%
COc1ccc(OC)c(/C=C/C(=O)NCCc2nc3ccccc3[nH]2)c1	3.74%

Structure (SMILES)	hERG current change (%, negative = inhibition) at 1uM
CCN(Cc1ccccc1)C(=O)CCS(=O)(=O)c1ccc2c(c1)CCN2C(C)=O	13.5%
CC(C#N)(Nc1ccc(Cl)cc1)c1cccnc1 (centres unmarked)	6.39%
Fc1ccc(-c2cn(-c3ccccc3)c3[n+]2CCS3)cc1.O.[Br-]	-8.42%
OCc1ccccc1CN1CCCCCC1	-3.19%
CCOc1ccc(NC(=O)Nc2cccc(C(=O)O)c2)cc1	9.55%
COc1ccc(C(=O)NCc2c(C)oc(C)c2C(=O)O)cc1	12.2%
COc1ccc(CCNC(=O)CC2SC(=NCc3ccccc3)NC2=O)cc1 (centres unmarked)	4.22%
O=C(NC(=S)N1CCCCCC1)c1cccc([N+](=O)[O-])c1	7.36%
O=C(NC(=S)Nc1ccc2[nH]c(=O)[nH]c2c1)c1ccccc1F	18.3%
O=S(=O)(NCc1cccnc1)c1ccc(Br)c2ccccc12	7.97%
CCCCn1c(-c2ccco2)nc2oc3ccccc3c(=O)c2c1=O	-1.88%
O=C(CCC1CCCC1)Nc1cccc(Cc2ccncc2)c1	-1.67%
CC1(C)NC(=O)N(CCCCSc2ccc(Cl)cc2)C1=O	-3.74%
Cc1nn(Cc2ccc(Cl)cc2)c2sc(C(=O)OCC(N)=O)cc12	6.37%
Cc1nn(C)cc1S(=O)(=O)N1CCCCC1C (centres unmarked)	4.32%
O=C(OCC(=O)N1CCN(C(=O)c2ccco2)CC1)c1ccc(S(=O)(=O)N2CCCCC2)cc1	-5.32%
CCOc1ccccc1NC(=O)CSc1ccccc1	12.3%
CCOc1ccc(N=C(NC#N)SC)cc1	10.5%
Cc1ccc2nc(-c3ccc(SCC(=O)O)nc3)[nH]c2c1	20.8%
CCC(C)(NC(=O)c1ccccn1)C(=O)NC1CCCC1 (centres unmarked)	7.95%

Structure (SMILES)	hERG current change (%, negative = inhibition) at 1uM
O=C(O)CCN1C(=O)/C(=C/c2ccc(-c3nc4ccccc4s3)o2)SC1=S	-0.496%
Cc1cc(C(=O)OC(C)C(=O)Nc2nc(-c3ccccc3)cs2)c(C)o1 (centres unmarked)	6.93%
O=C(Nc1nc2c(F)cccc2s1)c1ccc([N+](=O)[O-])o1	17.2%
COC(=O)c1ccc(CSc2nc(C(F)F)cc(C)c2C#N)o1	10.4%
COc1cc(N=Nc2cccc(S(N)(=O)=O)c2)c2ccccc2c1N	13.9%
O=C(CCn1c(=O)oc2ccccc21)NCCCN1CCCC1=O	8.38%
Cc1ccc(NC(=O)Cc2ccccc2)c(C)c1	14.3%
COc1ccccc1S(=O)(=O)NCc1ccc(C(=O)NC2CCC(O)CC2)cc1 (centres unmarked)	6.97%
CC(OC(=O)/C=C/c1ccccc1)C(=O)Nc1cccc(C#N)c1 (centres unmarked)	4.87%
CCc1c(C#N)c(N)nc(SCC(=O)OCc2ccccc2)c1C#N	10.2%
CSc1cccc(NC(=O)CN(Cc2ccc(Cl)cc2)S(C)(=O)=O)c1	-5.52%
O=C(NCCc1ccncc1)c1ccccc1F	9.09%
COc1ccc(NC(=O)NNC(=O)c2ccc3ccccc3c2O)cc1OC	16.5%
Cc1c(O)nc2ccccn2c1=O	1.21%
COc1ccc(N2CCN(C(=O)COC(=O)CCOc3ccc(C)cc3)CC2)cc1	11.6%
Cc1c(Br)c([N+](=O)[O-])nn1CC(=O)Nc1ccccn1	2%
COc1cccc2sc(N)nc12	8.85%
CC(C)NC(=O)C1CCN(C(=O)C(C(=O)c2ccccc2)n2cc(Cl)ccc2=O)CC1 (centres unmarked)	9.46%
CCN(CC)C(=O)CN(C#N)c1nc(NC(C)C)nc(NC(C)C)n1	10.5%
